These are yes or no findings as the source states them, for the method shown. Binding seen in cells or lysates may run through a third protein. Some results given as binding are weak or reduced against the parent protein; the word gives no strength. Where a sequence is shown, tags or fusion partners need not be part of it.

Chains of the proteins cited; added tags and fusions are not shown. Residues count along the entry.
UniProt P56536, residues 815-955: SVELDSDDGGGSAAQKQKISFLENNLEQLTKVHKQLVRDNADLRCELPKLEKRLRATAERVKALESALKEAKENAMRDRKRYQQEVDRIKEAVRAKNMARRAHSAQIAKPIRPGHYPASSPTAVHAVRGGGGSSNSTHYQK
UniProt P33176, residues 814-963: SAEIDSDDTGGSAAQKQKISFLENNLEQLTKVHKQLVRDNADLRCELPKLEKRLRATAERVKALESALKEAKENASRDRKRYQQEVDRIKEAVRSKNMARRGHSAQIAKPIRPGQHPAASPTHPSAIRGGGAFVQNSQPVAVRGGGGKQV

In test [1] the target is GST–KHC(815-955) (rat) (UniProt P56536). The experiment in a line: pull-down; GST–KHC tail fusion (0.25 nmol) on glutathione–Sepharose beads incubated 1.5 h with 293T cell extract expressing GFP fusion proteins; 25 mM HEPES pH 7.5, 150 mM NaCl, 0.1% NP-40, Triton X-100; western blot; only the target purified. For orientation: In western blotting, separated proteins are transferred to a membrane and probed.

The target is the same in test [2]. The experiment in a line: pull-down; competition: GST–KHC(815-955) pulldown of GFP–SKIP(1-310) from 293T cell extract to which purified recombinant KLC2^TPR was added at increasing concentrations; the blocked pair; only the target purified.
Test [3] deals with GST–Kif5B C-terminal tail fragment (814–963) (human) (UniProt P33176). The experiment in a line: pull-down; GST–KHC tail fusion (0.25 nmol) on glutathione–Sepharose beads incubated 1.5 h with 293T cell extract expressing GFP fusion proteins; 25 mM HEPES pH 7.5, 150 mM NaCl, 0.1% NP-40, Triton X-100; western blot; only the target purified.

B1: GFP–SKIP(1-260) (domain or fragment, UniProt Q8IWE5 1-260)
chain: MEPGEVKDRILENISLSVKKLQSYFAACEDEIPAIRNHDKVLQRLCEHLDHALLYGLQDLSSGYWVLVVHFTRREAIKQIEVLQHVATNLGRSRAWLYLALNENSLESYLRLFQENLGLLHKYYVKNALVCSHDHLTLFLTLVSGLEFIRFELDLDAPYLDLAPYMPDYYKPQYLLDFEDRLPSSVHGSDSLSLNSFNSVTSTNLEWDDSAIAPSSEDYDFGDVFPAVPSVPSTDWEDGDLTDTVSGPRSTASDLTSSKA
Consider B1, for which, in test [1], the binding result is reported as “binds”.

B2: GFP–CSTN1–SKIP(long) (protein, UniProt O94985 881-981; Q8IWE5 215-260)
chain: RIRAAHRRTMRDQDTGKENEMDWDDSALTITVNPMETYEDQHSSEEEEEEEEEEESEDGEEEDDITSAESESSEEEEGEQGDPQNATRQQQLEWDDSTLSYSSEDYDFGDVFPAVPSVPSTDWEDGDLTDTVSGPRSTASDLTSSKA
Take B2: in test [1], the binding result is on record as “binds”.

B3: GFP–SKIP(1-216) (domain or fragment, UniProt Q8IWE5 1-216)
chain: MEPGEVKDRILENISLSVKKLQSYFAACEDEIPAIRNHDKVLQRLCEHLDHALLYGLQDLSSGYWVLVVHFTRREAIKQIEVLQHVATNLGRSRAWLYLALNENSLESYLRLFQENLGLLHKYYVKNALVCSHDHLTLFLTLVSGLEFIRFELDLDAPYLDLAPYMPDYYKPQYLLDFEDRLPSSVHGSDSLSLNSFNSVTSTNLEWDDSAIAPSS
As for B3, the binding result in test [1] was “no binding”.

B4: GFP–SKIP(1-310) (domain or fragment, UniProt Q8IWE5 1-310)
chain: MEPGEVKDRILENISLSVKKLQSYFAACEDEIPAIRNHDKVLQRLCEHLDHALLYGLQDLSSGYWVLVVHFTRREAIKQIEVLQHVATNLGRSRAWLYLALNENSLESYLRLFQENLGLLHKYYVKNALVCSHDHLTLFLTLVSGLEFIRFELDLDAPYLDLAPYMPDYYKPQYLLDFEDRLPSSVHGSDSLSLNSFNSVTSTNLEWDDSAIAPSSEDYDFGDVFPAVPSVPSTDWEDGDLTDTVSGPRSTASDLTSSKASTRSPTQRQNPFNEEPAETVSSSDTTPVHTTSQEKEEAQALDPPDACTEL
On to B4, for which the binding result in test [2], in test [1] and in test [3] was “binds” in each case.

B5: GFP–CSTN1–SKIP(short) (protein, UniProt O94985 881-981; Q8IWE5 215-241)
chain: RIRAAHRRTMRDQDTGKENEMDWDDSALTITVNPMETYEDQHSSEEEEEEEEEEESEDGEEEDDITSAESESSEEEEGEQGDPQNATRQQQLEWDDSTLSYSSEDYDFGDVFPAVPSVPSTDWEDGDL
For B5, in test [1], the binding entry was “binds”.

B6: GFP–SKIP(1-243) (domain or fragment, UniProt Q8IWE5 1-243)
chain: MEPGEVKDRILENISLSVKKLQSYFAACEDEIPAIRNHDKVLQRLCEHLDHALLYGLQDLSSGYWVLVVHFTRREAIKQIEVLQHVATNLGRSRAWLYLALNENSLESYLRLFQENLGLLHKYYVKNALVCSHDHLTLFLTLVSGLEFIRFELDLDAPYLDLAPYMPDYYKPQYLLDFEDRLPSSVHGSDSLSLNSFNSVTSTNLEWDDSAIAPSSEDYDFGDVFPAVPSVPSTDWEDGDLTD
B6: in test [1], the binding entry is “binds”.

B7: GFP–SKIP(1-310) ΔEx7 (domain or fragment, UniProt Q8IWE5)
chain: MEPGEVKDRILENISLSVKKLQSYFAACEDEIPAIRNHDKVLQRLCEHLDHALLYGLQDLSSGYWVLVVHFTRREAIKQIEVLQHVATNLGRSRAWLYLALNENSLESYLRLFQENLGLLHKYYVKNALVCSHDHLTLFLTLVSGLEFIRFELDLDAPYLDLAPYMPDYYKPQYLLDFEDRLPSSVHGSDSLSLNSFNSVTSTNLEWDDSAIAPSSEDGDLTDTVSGPRSTASDLTSSKASTRSPTQRQNPFNEEPAETVSSSDTTPVHTTSQEKEEAQALDPPDACTEL
For B7, the binding entry in test [1] was “binds”.

The values above are taken from publication PMC5450233.
